Reference: patent US20230120736A1, “ANTI-CD98 ANTIBODIES AND ANTIBODY DRUG CONJUGATES” (AbbVie Inc., priority 2016, published 2023)

B1: CD98 (CL-huAb104)-CZ (conjugate)
heavy: EVQLVESGGGLVQPGGSLRLSCATSGFTFIDYYMSWVRQAPGKGLEWLGFIRNKAYGYTTEYSASVKGRFTISRDNSKSILYLQMNSLKTEDTAVYYCTRDRPAWFVYWGQGTLVTVSSASTKGPSVFPLAPSSKSTSGGTAALGCLVKDYFPEPVTVSWNSGALTSGVHTFPAVLQSSGLYSLSSVVTVPSSSLGTQTYICNVNHKPSNTKVDKKV[omitted - human IgG1 Fc with changes]
light: DIVMTQTPLSLPVTPGEPASISCKSSQSLLYSSNQKNYLAWYLQKPGQSPQLLIYWASTRESGVPDRFSGSGSGTDFTLKISRVEAEDVGVYYCQQYYSYPYTFGGGTKVEIKRTVAAPSVFIFPPSDEQLKSGTASVVCLLNNFYPREAKVQWKVDNALQSGNSQESVTEQDSKDSTYSLSSTLTLSKADYEKHKVYACEVTHQGLSSPVTKSFNRGEC
B2: CD98 (CL-huAb108)-TX (conjugate)
heavy: EVQLVQSGAEVKKPGASVKVSCKASGFTFSDYTMAWVRQAPGQGLEWVATIIYSGRGTYYRDAVKGRFTITRDNSTSTLYLELSSLRSEDTAVYYCARQSDDTYYYWGYFDYWGQGTMVTVSSASTKGPSVFPLAPSSKSTSGGTAALGCLVKDYFPEPVTVSWNSGALTSGVHTFPAVLQSSGLYSLSSVVTVPSSSLGTQTYICNVNHKPSNTKVDKKV[omitted - human IgG1 Fc with changes]
light: B1 light with S22N, Y31F, S33G, E61Q, V91I, S99D, Y100V, G106Q, V110L
B3: CD98 (CL-huAb104)-AAA (conjugate)
heavy: EVQLVESGGGLVQPGGSLRLSCATSGFTFIDYYMSWVRQAPGKGLEWLGFIRNKAYGYTTEYSASVKGRFTISRDNSKSILYLQMNSLKTEDTAVYYCTRDRPAWFVYWGQGTLVTVSSASTKGPSVFPLAPSSKSTSGGTAALGCLVKDYFPEPVTVSWNSGALTSGVHTFPAVLQSSGLYSLSSVVTVPSSSLGTQTYICNVNHKPSNTKVDKKV[omitted - human IgG1 Fc with changes]
light: B1 light
B4: CD98 (CL-huAb108)-CZ (conjugate)
heavy: EVQLVQSGAEVKKPGASVKVSCKASGFTFSDYTMAWVRQAPGQGLEWVATIIYSGRGTYYRDAVKGRFTITRDNSTSTLYLELSSLRSEDTAVYYCARQSDDTYYYWGYFDYWGQGTMVTVSSASTKGPSVFPLAPSSKSTSGGTAALGCLVKDYFPEPVTVSWNSGALTSGVHTFPAVLQSSGLYSLSSVVTVPSSSLGTQTYICNVNHKPSNTKVDKKV[omitted - human IgG1 Fc with changes]
light: B1 light with S22N, Y31F, S33G, E61Q, V91I, S99D, Y100V, G106Q, V110L
B5: CD98 (CL-huAb110)-CZ (conjugate)
heavy: EVQLVQSGAEVKKPGASVKVSCKASGFTFSDYTMAWVRQAPGQGLEWVATIIYDARGTYYRDAVKGRFTITRDNSTSTLYLELSSLRSEDTAVYYCARQSDDTYYYWGYFDYWGQGTMVTVSSASTKGPSVFPLAPSSKSTSGGTAALGCLVKDYFPEPVTVSWNSGALTSGVHTFPAVLQSSGLYSLSSVVTVPSSSLGTQTYICNVNHKPSNTKVDKKV[omitted - human IgG1 Fc with changes]
light: B1 light with S22N, Y31F, S33G, E61Q, V91I, Y100S, G106Q, V110L
B6: CD98 (CL-huAb108)-AAA (conjugate)
heavy: EVQLVQSGAEVKKPGASVKVSCKASGFTFSDYTMAWVRQAPGQGLEWVATIIYSGRGTYYRDAVKGRFTITRDNSTSTLYLELSSLRSEDTAVYYCARQSDDTYYYWGYFDYWGQGTMVTVSSASTKGPSVFPLAPSSKSTSGGTAALGCLVKDYFPEPVTVSWNSGALTSGVHTFPAVLQSSGLYSLSSVVTVPSSSLGTQTYICNVNHKPSNTKVDKKV[omitted - human IgG1 Fc with changes]
light: B1 light with S22N, Y31F, S33G, E61Q, V91I, S99D, Y100V, G106Q, V110L
B7: CD98 (CL-huAb102)-AAA (conjugate)
heavy: EVQLVESGGGLVQPGGSLRLSCATSGFTFIDYYMSWVRQAPGKGLEWLGFIRNKANRYTTEYSASVKGRFTISRDNSKSILYLQMNSLKTEDTAVYYCTRDRPAWFVYWGQGTLVTVSSASTKGPSVFPLAPSSKSTSGGTAALGCLVKDYFPEPVTVSWNSGALTSGVHTFPAVLQSSGLYSLSSVVTVPSSSLGTQTYICNVNHKPSNTKVDKKV[omitted - human IgG1 Fc with changes]
light: B1 light
B8: CD98 (CL-huAb102)-TX (conjugate)
heavy: EVQLVESGGGLVQPGGSLRLSCATSGFTFIDYYMSWVRQAPGKGLEWLGFIRNKANRYTTEYSASVKGRFTISRDNSKSILYLQMNSLKTEDTAVYYCTRDRPAWFVYWGQGTLVTVSSASTKGPSVFPLAPSSKSTSGGTAALGCLVKDYFPEPVTVSWNSGALTSGVHTFPAVLQSSGLYSLSSVVTVPSSSLGTQTYICNVNHKPSNTKVDKKV[omitted - human IgG1 Fc with changes]
light: B1 light
B9: CD98 (CL-huAb102)-CZ (conjugate)
heavy: EVQLVESGGGLVQPGGSLRLSCATSGFTFIDYYMSWVRQAPGKGLEWLGFIRNKANRYTTEYSASVKGRFTISRDNSKSILYLQMNSLKTEDTAVYYCTRDRPAWFVYWGQGTLVTVSSASTKGPSVFPLAPSSKSTSGGTAALGCLVKDYFPEPVTVSWNSGALTSGVHTFPAVLQSSGLYSLSSVVTVPSSSLGTQTYICNVNHKPSNTKVDKKV[omitted - human IgG1 Fc with changes]
light: B1 light

test system: not listed separately; assay: DAR determination by LC-MS; details: ADCs of Table 27
In short: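 Average DAR came from drug-load-weighted intensities of naked and modified chains, normalised to summed intensity and totalled over two light plus two heavy chains. Chains were produced by 5 mM TCEP (final) reduction, then desalted and measured by ESI-TOF MS with maximum-entropy deconvolution.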

Molecule	DAR by MS
B1	3.3
B2	2.9
B3	1.9
B4	2.9
B5	4.1
B6	1.3
B7	1.4
B8	2.0

same assay, conditions: ADCs of Table 28 (NCI-H146 xenograft study)

Molecule	DAR by MS
B1	2.6
B3	2.2
B4	3.2
B5	2.9
B6	3.0
B7	1.8
B8	1.8
B9	2.9

test system: A549 human lung carcinoma xenograft; assay: A549 FP3 xenograft tumor growth inhibition, with or without docetaxel; format: in vivo, mouse; details: QDx1, Ab095 8 IP, docetaxel 7.5 IV, ADC 10 mg/kg/day IP
Method: (§1) The cell lines A549 and NCI-H460 were obtained from the American Type Culture Collection (ATCC, Manassas, Va.). A549 cell line was further passaged in mice as flank xenograft to improve xenograft tumor growth, resulting in the A549-FP3 line. Cells were cultured as monolayers in RPMI-1640 culture media (Invitrogen, Carlsbad, Calif.) supplemented with 10% Fetal Bovine Serum (FBS, Hyclone, Logan, Utah). To generate xenografts, 5×10^6 (A549 and NCI-H460) viable cells were inoculated subcutaneously into the right flank of immune deficient female SCID-bg mice (Charles River Laboratories, Wilmington, Mass.). The injection volume was 0.2 ml and composed of 1:1 S-MEM:Matrigel Matrigel (BD, Franklin Lakes, N.J.). Tumors were size matched at approximately 223 mm^3. […] Measurements of the length (L) and width (W) of the tumor were taken via electronic caliper and the volume was calculated according to the following equation: V=L×W^2/2. […]
(§2) To refer to efficacy of therapeutic agents, parameters of amplitude (TGI.), durability (TGD) are used. […] Tumor growth inhibition is calculated by 100*(1−Tv/Cv) where Tv and Cv are the mean tumor volumes of the treated and control groups, respectively. […] TGD is calculated by 100*(Tt/Ct−1) where Tt and Ct are the median time periods to reach 1 cm^3 of the treated and control groups, respectively.

Molecule	TGD [%]	TGImax [%]
B2	60	57

test system: NCI-H146 (human small cell lung cancer) xenograft; assay: NCI-H146 xenograft tumor growth inhibition; format: in vivo, mouse; details: single dose 10 mg/kg/day QDx1/IP
Method: The in vivo efficacy of anti-CD98 hybridoma mAb conjugates were tested using Ab3-CZ and Ab5-CZ as examples in NCI-H146 (human small cell lung cancer) xenograft model. […] The cells were cultured as monolayers in RPMI-1640 culture media (Invitrogen, Carlsbad, Calif.) that was supplemented with 10% Fetal Bovine Serum (FBS, Hyclone, Logan, Utah). To generate xenografts, 5×10^6 (NCI-H146) viable cells were inoculated subcutaneously into the right flank of immune deficient female SCID-bg mice (Charles River Laboratories, Wilmington, Mass.). The injection volume was 0.2 mL and composed of Matrigel (BD, Franklin Lakes, N.J.). Tumors were size matched at approximately 212 mm^3. Antibodies and conjugates were formulated in phosphate buffered saline, pH 7.2 and injected intraperitoneally. […] Therapy began within 24 hours after size matching of the tumors. Mice weighed approximately 21 g at the onset of therapy. Tumor volume was estimated two to three times weekly. Measurements of the length (L) and width (W) of the tumor were taken via electronic caliper and the volume was calculated according to the following equation: V=L×W^2/2. Mice were euthanized when tumor volume reached 3,000 mm^3 or skin ulcerations occurred. Eight mice were housed per cage. Food and water were available ad libitum. Mice were acclimated to the animal facilities for a period of at least one week prior to commencement of experiments. Animals were tested in the light phase of a 12-hour light: 12-hour dark schedule (lights on at 06:00 hours). Anti-CD98 conjugates (10 mg/kg) were administered as a single dose (QDx1) intraperitoneally. A human IgG control antibody (MSL109, a humanized IgG1 antibody that binds to cytomegalovirus (CMV) glycoprotein H) was used as a negative control agent.
To refer to efficacy of therapeutic agents, parameters of amplitude (TGImax), durability (TGD) and response frequency (CR, PR, OR) of therapeutic response are used. The efficacy of inhibition of NCI-H146 xenografts growth with CD98-targeted ADCs is illustrated by Table 6, below. In the tables, to refer to efficacy, parameters of amplitude (TGImax) and durability (TGD) of therapeutic response are used. TGImax is the maximum tumor growth inhibition during the experiment. Tumor growth inhibition is calculated by 100*(1−Tv/Cv) where Tv and Cv are the mean tumor volumes of the treated and control groups, respectively. TGD or tumor growth delay is the extended time of a treated tumor needed to reach a volume of 1 cm^3 relative to the control group. TGD is calculated by 100*(Tt/Ct−1) where Tt and Ct are the median time periods to reach 1 cm^3 of the treated and control groups, respectively. Distribution of the response amplitude in a specific group is given by the frequency of complete responders (CR), partial responders (PR), and overall responders (OR). CR is the percentage of mice within a group with a tumor burden of 25 mm^3 for at least three measurements. PR is the percentage of mice within a group with a tumor burden larger than 25 mm^3 but less than one-half of the volume at onset of treatment for at least three measurements. OR is the sum of CR and PR.
The in vivo anti-tumor efficacy of selected humanized anti-CD98 mAb conjugates were tested in NCI-H146 (human small cell lung cancer) xenograft model, as described in Example 6. Tumor growth inhibition was reported as TGImax in Table 28.

Molecule	TGImax [%]
B1	90
B3	61
B4	93
B5	92
B6	61
B7	69
B8	92
B9	93

test system: not listed separately; assay: Size exclusion chromatography, % aggregate fraction of ADC; format: physicochemical; details: ADCs of Table 27
In short: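 The % aggregate of the conjugate was taken as the HMW share of the integrated A280 peak area (HMW plus monomer), ×100. Separation used size exclusion on a Shodex KW802.5 column with 0.2M potassium phosphate pH 6.2, 0.25 mM KCl and 15% IPA, flowing at 0.75 ml/min.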

Molecule	% agg by SEC [%]
B1	12.7
B2	2.3
B3	11.7
B4	4.8
B5	4.9
B6	17.9
B7	7.4
B8	1.0

test system: NCI-H460 human lung carcinoma xenograft; assay: NCI-H460 xenograft tumor growth inhibition, with or without docetaxel; format: in vivo, mouse; details: QDx1, Ab095 8 IP, docetaxel 7.5 IV, ADC 10 mg/kg/day IP
Method: as §1, §2

Molecule	TGD [%]	TGImax [%]
B2	22	35

Residue numbers refer to the chain shown, from its start.
